The target in one experiment is GST-fused CNOT7 (UniProt Q60809). In words: pull-down; protein extracts from E. coli expressing GST-fused CNOT proteins combined with MBP-NANOS3; precipitated with glutathione sepharose; CNOT proteins seen by Coomassie staining, co-precipitated MBP-NANOS3 by western blotting; only the binder purified. On the technique in general: A western blot detects proteins with antibodies after separation by electrophoresis.

Protein sequences, listed by entry. Tags and fused reporters are not part of them.
UniProt Q60809: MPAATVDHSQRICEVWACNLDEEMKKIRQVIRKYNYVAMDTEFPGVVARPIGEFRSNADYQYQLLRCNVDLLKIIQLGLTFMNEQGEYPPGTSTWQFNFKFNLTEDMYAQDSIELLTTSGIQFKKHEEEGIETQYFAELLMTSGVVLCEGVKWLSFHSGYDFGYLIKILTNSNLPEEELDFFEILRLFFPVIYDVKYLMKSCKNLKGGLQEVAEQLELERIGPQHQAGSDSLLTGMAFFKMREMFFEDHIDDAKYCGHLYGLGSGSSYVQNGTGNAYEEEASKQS
UniProt Q8K3P5: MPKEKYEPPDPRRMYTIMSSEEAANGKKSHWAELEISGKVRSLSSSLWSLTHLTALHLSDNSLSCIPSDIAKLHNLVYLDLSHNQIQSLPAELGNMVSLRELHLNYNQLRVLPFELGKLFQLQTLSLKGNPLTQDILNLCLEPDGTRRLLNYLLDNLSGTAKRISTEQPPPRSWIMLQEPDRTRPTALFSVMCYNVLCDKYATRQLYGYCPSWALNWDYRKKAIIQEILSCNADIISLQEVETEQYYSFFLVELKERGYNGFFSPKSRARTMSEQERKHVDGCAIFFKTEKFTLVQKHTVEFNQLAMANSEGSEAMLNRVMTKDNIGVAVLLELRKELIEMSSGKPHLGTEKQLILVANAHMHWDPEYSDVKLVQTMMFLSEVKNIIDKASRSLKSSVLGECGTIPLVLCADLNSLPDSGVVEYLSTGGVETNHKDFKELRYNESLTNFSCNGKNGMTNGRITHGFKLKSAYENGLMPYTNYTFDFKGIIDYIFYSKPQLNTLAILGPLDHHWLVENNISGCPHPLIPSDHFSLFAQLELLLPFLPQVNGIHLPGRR
UniProt Q8BH15: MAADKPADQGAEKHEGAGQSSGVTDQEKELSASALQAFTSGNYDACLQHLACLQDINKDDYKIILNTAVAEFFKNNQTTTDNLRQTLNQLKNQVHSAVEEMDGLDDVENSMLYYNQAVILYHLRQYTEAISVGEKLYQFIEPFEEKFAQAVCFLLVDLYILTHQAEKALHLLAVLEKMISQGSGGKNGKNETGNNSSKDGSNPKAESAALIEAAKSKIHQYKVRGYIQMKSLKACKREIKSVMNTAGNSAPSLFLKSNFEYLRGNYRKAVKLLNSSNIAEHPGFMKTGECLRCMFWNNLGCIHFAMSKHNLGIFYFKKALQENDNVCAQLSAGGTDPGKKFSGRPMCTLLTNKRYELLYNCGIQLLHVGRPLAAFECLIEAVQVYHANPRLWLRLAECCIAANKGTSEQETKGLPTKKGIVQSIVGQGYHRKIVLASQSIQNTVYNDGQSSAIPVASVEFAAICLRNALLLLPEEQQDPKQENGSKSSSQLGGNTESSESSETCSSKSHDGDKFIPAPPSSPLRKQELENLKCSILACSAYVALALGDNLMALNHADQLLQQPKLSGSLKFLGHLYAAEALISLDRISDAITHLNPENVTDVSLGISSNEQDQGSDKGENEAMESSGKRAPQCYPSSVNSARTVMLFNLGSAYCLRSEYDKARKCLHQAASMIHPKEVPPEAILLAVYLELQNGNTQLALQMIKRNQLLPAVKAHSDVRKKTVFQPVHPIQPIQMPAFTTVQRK
UniProt Q9JKY0: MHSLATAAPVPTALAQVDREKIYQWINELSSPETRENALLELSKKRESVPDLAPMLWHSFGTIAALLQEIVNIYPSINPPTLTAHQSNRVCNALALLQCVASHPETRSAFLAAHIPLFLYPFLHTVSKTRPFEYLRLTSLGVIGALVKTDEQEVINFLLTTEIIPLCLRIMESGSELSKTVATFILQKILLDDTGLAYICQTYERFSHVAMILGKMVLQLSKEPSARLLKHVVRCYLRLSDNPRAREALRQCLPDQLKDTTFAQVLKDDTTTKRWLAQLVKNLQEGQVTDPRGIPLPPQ
UniProt Q8K0V4: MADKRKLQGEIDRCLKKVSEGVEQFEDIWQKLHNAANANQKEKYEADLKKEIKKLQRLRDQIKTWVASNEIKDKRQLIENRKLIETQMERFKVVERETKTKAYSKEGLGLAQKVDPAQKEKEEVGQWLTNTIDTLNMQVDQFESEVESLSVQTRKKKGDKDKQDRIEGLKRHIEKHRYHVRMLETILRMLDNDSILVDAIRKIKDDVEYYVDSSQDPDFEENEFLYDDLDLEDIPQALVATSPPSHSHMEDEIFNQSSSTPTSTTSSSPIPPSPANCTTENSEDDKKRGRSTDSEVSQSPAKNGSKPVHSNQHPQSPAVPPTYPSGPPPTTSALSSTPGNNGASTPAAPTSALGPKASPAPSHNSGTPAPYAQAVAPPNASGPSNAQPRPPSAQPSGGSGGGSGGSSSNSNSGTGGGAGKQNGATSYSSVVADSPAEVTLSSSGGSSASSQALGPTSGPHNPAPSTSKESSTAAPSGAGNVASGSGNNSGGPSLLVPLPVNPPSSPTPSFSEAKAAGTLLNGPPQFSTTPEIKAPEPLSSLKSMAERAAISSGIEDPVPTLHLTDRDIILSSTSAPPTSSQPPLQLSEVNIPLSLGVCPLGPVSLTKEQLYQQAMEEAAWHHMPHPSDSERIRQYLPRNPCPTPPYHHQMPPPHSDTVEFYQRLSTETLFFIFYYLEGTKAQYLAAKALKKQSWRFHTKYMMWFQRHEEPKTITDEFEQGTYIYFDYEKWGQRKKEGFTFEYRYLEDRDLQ
UniProt Q8C5L3: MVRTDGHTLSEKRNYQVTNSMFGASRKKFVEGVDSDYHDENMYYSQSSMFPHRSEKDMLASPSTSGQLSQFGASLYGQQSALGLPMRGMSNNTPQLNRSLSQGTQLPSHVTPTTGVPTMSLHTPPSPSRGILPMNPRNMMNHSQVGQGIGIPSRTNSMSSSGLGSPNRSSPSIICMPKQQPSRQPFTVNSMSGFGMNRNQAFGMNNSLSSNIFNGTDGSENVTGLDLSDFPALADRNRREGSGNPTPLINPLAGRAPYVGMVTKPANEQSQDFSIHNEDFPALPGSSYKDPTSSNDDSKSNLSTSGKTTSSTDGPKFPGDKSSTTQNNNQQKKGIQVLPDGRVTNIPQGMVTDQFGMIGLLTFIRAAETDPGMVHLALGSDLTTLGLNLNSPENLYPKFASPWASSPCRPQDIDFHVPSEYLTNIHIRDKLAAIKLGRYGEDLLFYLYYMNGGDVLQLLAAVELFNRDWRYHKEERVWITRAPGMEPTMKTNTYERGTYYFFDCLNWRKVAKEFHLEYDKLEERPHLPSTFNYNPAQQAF
UniProt Q9D8X5: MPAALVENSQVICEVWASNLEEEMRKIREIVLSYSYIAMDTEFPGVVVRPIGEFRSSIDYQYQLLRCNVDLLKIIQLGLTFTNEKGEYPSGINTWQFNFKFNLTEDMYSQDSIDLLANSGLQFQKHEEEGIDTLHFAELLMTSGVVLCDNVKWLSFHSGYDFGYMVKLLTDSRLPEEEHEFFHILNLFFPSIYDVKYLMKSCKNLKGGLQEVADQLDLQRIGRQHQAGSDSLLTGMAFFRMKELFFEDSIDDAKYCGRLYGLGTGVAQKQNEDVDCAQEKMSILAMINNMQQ
UniProt P60324: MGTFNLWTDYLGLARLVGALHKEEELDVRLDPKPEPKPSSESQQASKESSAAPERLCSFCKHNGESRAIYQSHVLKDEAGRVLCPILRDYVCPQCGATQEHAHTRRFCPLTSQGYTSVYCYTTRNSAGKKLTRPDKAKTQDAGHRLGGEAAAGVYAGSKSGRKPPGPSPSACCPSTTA
UniProt O75175: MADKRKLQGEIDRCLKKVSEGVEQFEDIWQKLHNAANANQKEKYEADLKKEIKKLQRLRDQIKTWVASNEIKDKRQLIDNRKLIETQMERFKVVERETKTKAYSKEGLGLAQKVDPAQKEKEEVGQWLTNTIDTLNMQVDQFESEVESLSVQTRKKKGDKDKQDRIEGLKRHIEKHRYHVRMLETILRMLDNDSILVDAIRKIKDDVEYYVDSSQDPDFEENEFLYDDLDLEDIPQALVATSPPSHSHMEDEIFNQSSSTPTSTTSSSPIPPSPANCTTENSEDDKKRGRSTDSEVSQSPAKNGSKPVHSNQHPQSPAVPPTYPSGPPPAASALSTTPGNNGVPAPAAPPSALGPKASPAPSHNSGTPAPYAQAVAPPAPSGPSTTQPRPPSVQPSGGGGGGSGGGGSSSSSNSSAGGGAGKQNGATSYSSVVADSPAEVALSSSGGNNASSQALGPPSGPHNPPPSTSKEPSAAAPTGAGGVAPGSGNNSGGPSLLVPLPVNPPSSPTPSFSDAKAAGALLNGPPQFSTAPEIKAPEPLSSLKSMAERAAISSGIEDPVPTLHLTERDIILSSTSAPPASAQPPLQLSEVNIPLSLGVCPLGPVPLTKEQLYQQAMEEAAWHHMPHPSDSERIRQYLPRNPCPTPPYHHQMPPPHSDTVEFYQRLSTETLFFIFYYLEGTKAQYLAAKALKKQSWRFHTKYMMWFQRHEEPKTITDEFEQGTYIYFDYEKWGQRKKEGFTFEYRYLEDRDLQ
UniProt Q9UIV1: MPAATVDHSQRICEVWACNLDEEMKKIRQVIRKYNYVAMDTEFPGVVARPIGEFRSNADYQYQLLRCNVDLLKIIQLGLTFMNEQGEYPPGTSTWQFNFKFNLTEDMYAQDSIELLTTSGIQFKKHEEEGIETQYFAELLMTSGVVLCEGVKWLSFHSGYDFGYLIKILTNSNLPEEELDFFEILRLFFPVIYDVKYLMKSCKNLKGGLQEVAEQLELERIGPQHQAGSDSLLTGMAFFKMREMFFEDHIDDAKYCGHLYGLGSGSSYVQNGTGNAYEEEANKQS
UniProt Q9UFF9: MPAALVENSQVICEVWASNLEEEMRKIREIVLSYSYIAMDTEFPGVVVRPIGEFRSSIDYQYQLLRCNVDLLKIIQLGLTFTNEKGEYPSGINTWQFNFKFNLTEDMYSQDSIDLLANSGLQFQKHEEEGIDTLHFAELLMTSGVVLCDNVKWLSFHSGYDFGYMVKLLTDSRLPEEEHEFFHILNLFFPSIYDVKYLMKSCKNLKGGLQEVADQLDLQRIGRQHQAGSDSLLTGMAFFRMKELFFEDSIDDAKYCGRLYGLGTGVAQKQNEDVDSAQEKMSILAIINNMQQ
UniProt Q92600: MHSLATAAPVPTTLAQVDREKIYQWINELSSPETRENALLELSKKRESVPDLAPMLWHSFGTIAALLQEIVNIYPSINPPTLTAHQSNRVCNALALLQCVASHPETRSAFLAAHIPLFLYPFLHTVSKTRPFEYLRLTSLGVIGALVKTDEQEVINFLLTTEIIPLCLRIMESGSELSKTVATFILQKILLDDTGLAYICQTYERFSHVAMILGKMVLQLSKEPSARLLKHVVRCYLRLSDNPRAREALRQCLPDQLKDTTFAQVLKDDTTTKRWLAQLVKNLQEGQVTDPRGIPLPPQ

A further experiment has as its target GST-fused CNOT6 (UniProt Q8K3P5). Described as above.
The target in the next experiment is GST-fused CNOT10 (UniProt Q8BH15). The experiment is described as above.
The target in the next experiment is GST-fused CNOT9 (UniProt Q9JKY0). The experiment is described as above.
The target in the next experiment is GST-fused CNOT3 (UniProt Q8K0V4). The description is as above.
The next experiment deals with T1, GST-fused CNOT4 (UniProt Q8BT14).
T1 sequence: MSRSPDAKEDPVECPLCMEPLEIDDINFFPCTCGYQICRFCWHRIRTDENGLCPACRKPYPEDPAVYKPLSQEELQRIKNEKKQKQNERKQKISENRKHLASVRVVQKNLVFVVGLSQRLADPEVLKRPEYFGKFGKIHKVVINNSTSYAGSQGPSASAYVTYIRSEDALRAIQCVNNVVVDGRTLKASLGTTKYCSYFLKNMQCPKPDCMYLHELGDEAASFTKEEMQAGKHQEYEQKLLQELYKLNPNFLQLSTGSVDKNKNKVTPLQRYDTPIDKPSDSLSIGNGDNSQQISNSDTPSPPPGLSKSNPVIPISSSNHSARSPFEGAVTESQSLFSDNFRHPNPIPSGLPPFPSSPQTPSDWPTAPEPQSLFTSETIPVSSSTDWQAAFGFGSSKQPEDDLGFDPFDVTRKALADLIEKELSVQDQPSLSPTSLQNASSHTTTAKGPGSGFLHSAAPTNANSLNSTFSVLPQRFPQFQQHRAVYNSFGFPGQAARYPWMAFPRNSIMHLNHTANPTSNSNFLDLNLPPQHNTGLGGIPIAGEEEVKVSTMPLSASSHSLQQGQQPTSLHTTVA
The experiment is described as above.

For a further experiment, the target named is GST-fused CNOT6L (UniProt Q8VEG6). The description is as above.
The target of the next experiment is GST-fused CNOT2 (UniProt Q8C5L3). Described as above.
For the next experiment, the target named is GST-fused CNOT8 (UniProt Q9D8X5). The description is as above.
In experiment [1] the target is T2, Flag-tagged NANOS2-ZM (mouse) (UniProt P60322).
T2 sequence: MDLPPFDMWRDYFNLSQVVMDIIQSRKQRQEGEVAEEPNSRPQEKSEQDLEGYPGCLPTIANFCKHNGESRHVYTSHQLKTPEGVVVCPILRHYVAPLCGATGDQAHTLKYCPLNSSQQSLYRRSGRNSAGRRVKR
Nature of the experiment: co-IP; Flag-tagged NANOS protein transfected into HeLa cells, precipitated with anti-FLAG antibodies from cell extracts; endogenous CNOT proteins detected by western blotting.

Experiment [2] deals with Flag-tagged NANOS2 (mouse) (UniProt P60322). Described as above.
For experiment [3], the target named is Flag-tagged NANOS3 (mouse) (UniProt P60324). Described as above.

No constants are given. Whether binding was seen depends on the method and setting. In cells and extracts the contact can be indirect. Some binding calls cover weakened binding; strength is not graded here. For part of these data: Sequences can lack the tags named with a protein.

Consider “MBP-NANOS3 fusion protein (from UniProt P60324 1-178)”, for which the binding result in the experiment with GST-fused CNOT7, in the experiment with GST-fused CNOT6, with GST-fused CNOT10, with GST-fused CNOT9, with GST-fused CNOT3 and with GST-fused CNOT4 was “no binding” each time. The results for the binding result in the experiment with GST-fused CNOT6L, with GST-fused CNOT2 and in the experiment with GST-fused CNOT8 were “no binding”, “no binding” and “binds”, respectively.
As for “endogenous CNOT1 (from UniProt A5YKK6 1-2376)”, the binding entry in experiment [1] and in [2] was “binds” in each case.
As to “endogenous CNOT3 (from UniProt O75175 1-753)”, the binding entry in experiment [2] is reported as “binds”.
Regarding “endogenous CNOT7 (from UniProt Q9UIV1 1-285)”, the binding entry in [2] is “binds”.
In the case of “endogenous CNOT8 (from UniProt Q9UFF9 1-292)”, the binding result in experiment [3] was “binds weakly”.
As for “endogenous CNOT9 (from UniProt Q92600 1-299)”, the binding entry in experiment [2] is listed as “binds”.

Source of the values: paper PMC4265758.
